# Patent publication US7592316B2, “Peptides as NS3-serine protease inhibitors of hepatitis C virus” (Schering Corporation, priority 2000, dated 2009)
# Molecular target: HCV NS3/NS4A protease (strain 1a) (Hepatitis C virus genotype 1a, UniProt P27958)
# Test: biochemical
# Settings: Compounds prepared by Solid Phase Synthesis, Table 3; read-out: Ki* CLASS
row,Structure (SMILES),pKi
1,CCCCC(NC(=O)C1CCCN1C(=O)[C@@H](NC(=O)OC(C)(C)C)C1CCCCC1)C(=O)C(=O)N[C@@H](C)C(=O)N[C@H](C(N)=O)C1CCCCC1 (stereo partly drawn) (Boc-[Chg][ξP][X4]A[Chg]-NH2),< 6.00
2,CCCCC(NC(=O)C1CCCN1C(=O)[C@@H](NC(=O)OC(C)(C)C)C1CCCCC1)C(=O)C(=O)NCC(=O)N[C@H](C(N)=O)C1CCCCC1 (stereo partly drawn) (Boc-[Chg][ξP][X4]G[Chg]-NH2),< 6.00
3,C[C@H](NC(=O)C(=O)C(CC1CC1)NC(=O)C1CCCN1C(=O)[C@@H](NC(=O)OC(C)(C)C)C1CCCCC1)C(=O)N[C@H](C(N)=O)c1ccccc1 (stereo partly drawn) (Boc-[Chg][ξP][X8]A[Phg]-NH2),< 6.00
4,CC(C)(C)OC(=O)N[C@H](C(=O)N1CCCC1C(=O)NC(CC1CC1)C(=O)C(=O)NCC(=O)N[C@H](C(N)=O)c1ccccc1)C1CCCCC1 (stereo partly drawn) (Boc-[Chg][ξP][X8]G[Phg]-NH2),< 6.00
5,CCCCC(NC(=O)C1C[C@@H](OC(C)(C)C)CN1C(=O)[C@@H](NC(=O)OC(C)(C)C)C1CCCCC1)C(=O)C(=O)N[C@@H](C)C(=O)N[C@H](C(N)=O)C1CCCCC1 (stereo partly drawn) (Boc-[Chg][ξPro(4R-OtBu)][X4]A[Chg]-NH2),< 6.00
6,CCCCC(NC(=O)C1C[C@@H](OC(C)(C)C)CN1C(=O)[C@@H](NC(=O)OC(C)(C)C)C1CCCCC1)C(=O)C(=O)NCC(=O)N[C@H](C(N)=O)C1CCCCC1 (stereo partly drawn) (Boc-[Chg][ξPro(4R-OtBu)][X4]G[Chg]-NH2),< 6.00
7,C[C@H](NC(=O)C(=O)C(CC1CC1)NC(=O)C1C[C@@H](OC(C)(C)C)CN1C(=O)[C@@H](NC(=O)OC(C)(C)C)C1CCCCC1)C(=O)N[C@H](C(N)=O)c1ccccc1 (stereo partly drawn) (Boc-[Chg][ξPro(4R-OtBu)][X8]A[Phg]-NH2),6.00 to 7.00
8,CC(C)(C)OC(=O)N[C@H](C(=O)N1C[C@H](OC(C)(C)C)CC1C(=O)NC(CC1CC1)C(=O)C(=O)NCC(=O)N[C@H](C(N)=O)c1ccccc1)C1CCCCC1 (stereo partly drawn) (Boc-[Chg][ξPro(4R-OtBu)][X8]G[Phg]-NH2),6.00 to 7.00
9,CCCCC(NC(=O)[C@@H]1C[C@@H](OC(C)(C)C)CN1C(=O)[C@@H](NC(=O)OC(C)(C)C)c1ccccc1)C(=O)C(=O)NCC(=O)N[C@H](C(N)=O)c1ccccc1 (stereo partly drawn) (Boc-[Phg][Hyp](tBu)[X4]G[Phg]-NH2),< 6.00
10,CCCC(NC(=O)[C@@H]1C[C@@H](OC(C)(C)C)CN1C(=O)[C@@H](NC(=O)OC(C)(C)C)C(C)(C)C)C(=O)C(=O)NCC(=O)N[C@H](C(N)=O)c1ccccc1 (stereo partly drawn) (Boc-[Tle][Hyp](tBu)[X2]G[Phg]-NH2),6.00 to 7.00
11,CCCCC(NC(=O)[C@@H]1C[C@@H](OC(C)(C)C)CN1C(=O)[C@@H](NC(=O)OC(C)(C)C)C(C)(C)C)C(=O)C(=O)NCC(=O)N[C@H](C(N)=O)c1ccccc1 (stereo partly drawn) (Boc-[Tle][Hyp](tBu)[X4]G[Phg]-NH2),6.00 to 7.00

# Same assay, conditions: Table 5; HCV NS3/NS4A protease, spectrophotometric assay, 30° C., pH 6.5; read-out: Ki* Range
row,Structure (SMILES),pKi
1,"COCC(NC(=O)[C@@H]1[C@@H]2[C@H](CN1C(=O)[C@@H](NC(=O)OC(C)(C)C)C1CCCCC1)C2(C)C)C(=O)C(=O)NCC(=O)N[C@H](C(=O)N(C)C)c1ccccc1 (stereo partly drawn) (Boc-[Chg][Pro(3R,4S-CMe2)][X71]G[Phg]-NMe2)",6.00 to 7.00
2,"CCC(NC(=O)[C@@H]1[C@@H]2[C@H](CN1C(=O)[C@@H](NC(=O)OC(C)(C)C)C1CCCCC1)C2(C)C)C(=O)C(=O)NCC(=O)N[C@H](C(=O)N(C)C)c1ccccc1 (stereo partly drawn) (Boc-[Chg][Pro(3R,4S-CMe2)][ξ(3-Amino-2-oxopentanoyl)]G[Phg]-NMe2)",7.00 to 9.00
3,"CN(C)C(=O)[C@@H](NC(=O)CNC(=O)C(=O)C(CC(F)(F)F)NC(=O)[C@@H]1[C@@H]2[C@H](CN1C(=O)[C@@H](NC(=O)OC(C)(C)C)C1CCCCC1)C2(C)C)c1ccccc1 (stereo partly drawn) (Boc-[Chg][Pro(3R,4S-CMe2)][ξβ3hAbu(2-oxo,5,5,5-F3)]G[Phg]-NMe2)",6.00 to 7.00
4,"CCCC(NC(=O)[C@@H]1[C@@H]2[C@H](CN1C(=O)[C@@H](NC(=O)OC(C)(C)C)C1CCCC1)C2(C)C)C(=O)C(=O)NCC(=O)N[C@H](C(=O)N(C)C)c1ccccc1 (stereo partly drawn) (Boc-[Gly(cPent)][Pro(3R,4S-CMe2)][X2]G[Phg]-NMe2)",7.00 to 9.00
5,"C=CCCC(NC(=O)[C@@H]1[C@@H]2[C@H](CN1C(=O)[C@@H](NC(=O)OC(C)(C)C)C1CCCC1)C2(C)C)C(=O)C(=O)NCC(=O)N[C@H](C(=O)N(C)C)c1ccccc1 (stereo partly drawn) (Boc-[Gly(cPent)][Pro(3R,4S-CMe2)][X6]G[Phg]-NMe2)",7.00 to 9.00
6,"CN(C)C(=O)[C@@H](NC(=O)CNC(=O)C(=O)C(CC1CC1)NC(=O)[C@@H]1[C@H]2[C@@H](CN1C(=O)[C@@H](NC(=O)OC(C)(C)C)C1CCCC1)C2(C)C)c1ccccc1 (stereo partly drawn) (Boc-[Gly(cPent)][Pro(3S,4R-CMe2)][X8]G[Phg]-NMe2)",7.00 to 9.00
7,"CCCC(NC(=O)[C@@H]1[C@H]2[C@@H](CN1C(=O)[C@@H](NC(=O)OC(C)(C)C)C1Cc3ccccc3C1)C2(C)C)C(=O)C(=O)NCC(=O)N[C@H](C(=O)N(C)C)c1ccccc1 (stereo partly drawn) (Boc-[Igl][Pro(3S,4R-CMe2)][X2]G[Phg]-NMe2)",7.00 to 9.00

# pKi: −log10 of the molar value. *1 amine or outer side, *2 acyl side, *3 side chain or, on linkers, in order; H or OH if unused. Where a SMILES comes first, the peptide text is derived from it. [ ]: non-standard residue; d: D form. The star is where a group is joined. ξ: configuration not given here. ξβ3hAbu(2-oxo,5,5,5-F3) = O=C(C(=O)[*:2])C(CC(F)(F)F)N[*:1]; Pro(3R,4S-CMe2) = CC1(C)[C@@H]2[C@@H](C(=O)O)NC[C@@H]21; ξ(3-Amino-2-oxopentanoyl) = CCC(N[*:1])C(=O)C(=O)[*:2]; Pro(3S,4R-CMe2) = CC1(C)[C@H]2[C@@H](C(=O)O)NC[C@H]21; ξPro(4R-OtBu) = CC(C)(C)O[C@H]1CNC(C(=O)O)C1; X8 = O=C(C(=O)[*:2])C(CC1CC1)N[*:1]; Gly(cPent) = N[C@H](C(=O)O)C1CCCC1; X6 = C=CCCC(N[*:1])C(=O)C(=O)[*:2]; Igl = N[C@H](C(=O)O)C1Cc2ccccc2C1; X4 = CCCCC(N[*:1])C(=O)C(=O)[*:2]; X71 = COCC(N[*:1])C(=O)C(=O)[*:2]; Hyp = O=C(O)[C@@H]1C[C@@H](O)CN1; X2 = CCCC(N[*:1])C(=O)C(=O)[*:2]; Chg = N[C@H](C(=O)O)C1CCCCC1; Phg = N[C@H](C(=O)O)c1ccccc1; Tle = CC(C)(C)[C@H](N)C(=O)O; Boc = CC(C)(C)OC(=O)*; ξP = O=C(O)C1CCCN1; tBu = CC(C)(C)*
